# Results taken from the antibiotic and cytotoxicity screens of Wong et al. (2023).
# Some of the results follow.
# System: HSkMC (human skeletal muscle cells)
# Test: cytotoxicity call (relative viability < 0.9)
# Conditions: 10 µM
row,Compound,cytotoxicity call
1,N[C@@H](CN1C=CC(=O)C(=O)C1)C(=O)O,inactive
2,O=C(C[C@@H]1CC[C@@H]2[C@H](COC[C@H](O)CN2C(=O)c2ccc(F)cc2)O1)NCCCN1CCOCC1,inactive
3,Cc1cc(Cl)ccc1OCCN1CCN(C(=O)[C@H]2CC[C@@H](N)C2)CC1,inactive
4,C[C@H]1CN([C@@H](C)CO)C(=O)Cc2cc(NC(=O)Nc3cccc4ccccc34)ccc2O[C@@H]1CN(C)C(=O)Nc1cccc2ccccc12,inactive
5,C[C@@H]1CN([C@H](C)CO)C(=O)c2cccc(NC(=O)Nc3ccc(C(F)(F)F)cc3)c2O[C@H]1CN(C)C(=O)Nc1ccc(C(F)(F)F)cc1,inactive
6,Cc1noc(C)c1NC(=O)Nc1ccc2c(c1)C(=O)N([C@H](C)CO)C[C@@H](C)[C@H](CN(C)Cc1ccc3c(c1)OCO3)OCCCC[C@H](C)O2,inactive
7,O=C(C[C@@H]1CC[C@@H]2NC[C@@H](O)COC[C@H]2O1)NCCN1CCCCC1,inactive
8,NNC(=O)CNC(=O)[C@H]1COc2ccccc2O1,inactive
9,CC(C)NC(=O)N(C)C[C@@H]1OCCCC[C@H](C)Oc2ccc(NC(=O)Nc3ccc(F)cc3)cc2C(=O)N([C@@H](C)CO)C[C@@H]1C,inactive
10,Cc1ccc(S(=O)(=O)N(C)C[C@H]2Oc3ccc(NC(=O)c4ccncc4)cc3CC(=O)N([C@@H](C)CO)C[C@@H]2C)cc1,inactive
11,Cc1noc(C)c1S(=O)(=O)N(C)C[C@@H]1Oc2ccc(NS(=O)(=O)c3ccccc3)cc2CC(=O)N([C@H](C)CO)C[C@@H]1C,inactive
12,C[C@H]1CCCCO[C@H](CN(C)C(=O)Nc2cccc3ccccc23)[C@@H](C)CN([C@@H](C)CO)C(=O)c2cc(NC(=O)C3CCCCC3)ccc2O1,inactive
13,Cl.Nc1ccn(C2OC(CO)C(O)C2(F)F)c(=O)n1 (stereo not given),inactive
14,C[C@@H]1CN([C@H](C)CO)C(=O)c2cc(NC(=O)Nc3ccc(C(F)(F)F)cc3)ccc2O[C@@H](C)CCCCO[C@H]1CN(C)C,inactive
15,C[C@@H]1CCCCO[C@@H](CN(C)S(=O)(=O)c2ccccc2)[C@H](C)CN([C@@H](C)CO)C(=O)c2cc(NC(=O)C3CCCCC3)ccc2O1,inactive
16,C[C@H](CO)N1C[C@H](C)[C@@H](CN(C)C(=O)c2cccc(F)c2)Oc2cc(-c3cccnc3)ccc2S1(=O)=O,inactive
17,CC(NCCCc1cccc(C(F)(F)F)c1)c1cccc2ccccc12.Cl (stereo not given),inactive
18,COc1cccc2c1C(=O)c1c(O)c3c(c(O)c1C2=O)CC(O)(C(C)=O)CC3OC1CC(N)C(O)C(C)O1.Cl (stereo not given),inactive
19,C[C@@H]1CN([C@H](C)CO)C(=O)c2cccc(NS(C)(=O)=O)c2O[C@H]1CN(C)S(=O)(=O)c1ccc(F)cc1,inactive
20,CN1CCN(C(=O)C[C@H]2CC[C@@H]3[C@H](COC[C@H](O)CN3Cc3ccc4c(c3)OCO4)O2)CC1,inactive

row,Compound,cytotoxicity call
1,C[C@@H]1CN([C@H](C)CO)C(=O)c2cccc(NC(=O)Nc3ccc(C(F)(F)F)cc3)c2O[C@H]1CN(C)C(=O)Nc1cccc2ccccc12,inactive
2,N=C(N)S/C=C\C(=O)O,inactive
3,CNC(=O)C[C@H]1CC[C@@H]2[C@H](COC[C@@H](O)CN2C(=O)Nc2ccc3c(c2)OCO3)O1,inactive
4,C[C@H]1CN([C@@H](C)CO)C(=O)c2cccc(NC(=O)c3ccncc3)c2O[C@@H]1CN(C)S(=O)(=O)c1ccc(F)cc1,inactive
5,C[C@@H]1CN([C@H](C)CO)C(=O)Cc2cc(NC(=O)NC3CCCCC3)ccc2O[C@@H]1CN(C)C(=O)Nc1cccc2ccccc12,inactive
6,COc1ccc(S(=O)(=O)N(C)C[C@@H]2Oc3ccc(NS(=O)(=O)c4c(C)noc4C)cc3C(=O)N([C@H](C)CO)C[C@H]2C)cc1,inactive
7,C[C@@H]1CN([C@H](C)CO)C(=O)Cc2cc(N(C)C)ccc2O[C@@H]1CN(C)C(=O)Nc1ccc2c(c1)OCO2,inactive
8,O=C(C[C@@H]1CC[C@H]2[C@@H](COC[C@H](O)CN2Cc2cc(F)ccc2F)O1)N[C@@H]1CCN(Cc2ccccc2)C1,inactive
9,Cc1noc(C)c1S(=O)(=O)N(C)C[C@@H]1Oc2ccc(NS(=O)(=O)c3ccccc3)cc2CC(=O)N([C@@H](C)CO)C[C@@H]1C,inactive
10,COc1cc(-c2coc3cc(OC4OC(CO)C(O)C(O)C4O)c(OC)c(O)c3c2=O)cc(O)c1OC (stereo not given),inactive
11,C[C@H]1CN([C@@H](C)CO)C(=O)c2cccc(NS(=O)(=O)c3ccc(Cl)cc3)c2O[C@@H]1CN(C)Cc1ccc(-c2ccccc2)cc1,inactive
12,COc1cccc(C#Cc2ccc3c(c2)O[C@@H](CN(C)C(C)=O)[C@@H](C)CN([C@H](C)CO)S3(=O)=O)c1,inactive
13,C[C@@H]1CN([C@@H](C)CO)C(=O)c2cc(NC(=O)CCC(F)(F)F)ccc2O[C@H]1CN(C)Cc1ccc(Oc2ccccc2)cc1,inactive
14,C[C@@H]1CN([C@H](C)CO)C(=O)CCCn2nncc2CO[C@H]1CN(C)S(=O)(=O)c1ccc2c(c1)OCCCO2,inactive
15,CC(C)[C@@H]1COCc2cnnn2CCC[C@H](C)C(=O)N[C@H](C(C)C)COCc2cnnn2CCC[C@H](C)C(=O)N1,inactive
16,C[C@H]1CN([C@@H](C)CO)C(=O)c2cc(NC(=O)Nc3ccccc3)ccc2O[C@@H]1CN(C)C(=O)Nc1ccc(C(F)(F)F)cc1,inactive
17,Cc1ccc(S(=O)(=O)N2CCN(CC(=O)N/N=C/c3ccccn3)CC2)cc1,inactive
18,C[C@H]1CCCCO[C@H](CN(C)C(=O)CCCN(C)C)[C@@H](C)CN([C@@H](C)CO)C(=O)c2cc(NC(=O)Nc3cccc4ccccc34)ccc2O1,inactive
19,Cc1ccc(S(=O)(=O)Nc2ccc3c(c2)C(=O)N([C@H](C)CO)C[C@H](C)[C@@H](CN(C)Cc2ccc(Cl)c(Cl)c2)OCCCC[C@@H](C)O3)cc1,inactive
20,C[C@@H]1CN([C@@H](C)CO)C(=O)c2cc(NC(=O)C3CC3)ccc2O[C@H]1CN(C)C(=O)NC1CCCCC1,inactive
